Experimental data published in PubChem BioAssay AID1345082 (National Center for Advancing Translational Sciences (NCATS), 2018).
The whole screen tested about 94,000 compounds, of which about 4,000 (4.3%) were called active. Inconclusive means that the source gave no clear call. Such entries were picked first, then a sample of the others. The call rests on the fitted dose curve; in most records, active means well fitted inhibition curve with a large enough effect; inconclusive means small, poorly fitted or top-dose-only effect; inactive means no such curve, though single readings can be large or run the other way. A potency beside an inconclusive call is a rough fit, not a confirmed value.

Experiment: Cytotoxic Profiling in NIH 3T3 Cell Line of Diverse Libraries Using Quantitative High-Throughput Screening; further: nearly all actives have a fitted effect of over 55% in size
Details: NIH 3T3 viability, CellTiter-Glo ATP luminescence, 48-72 h; series mostly up to 96.7 µM
Procedure, shortened: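 ATP-dependent luminescence (CellTiter-Glo) served as the viability signal for NIH 3T3 cells treated with compound for 48 or 72 hr at 37 °C.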
Potency means the concentration at half of the fitted maximal effect; tags describe the fitted curve by direction and shape.

Structure (SMILES)	Potency
COc1ccc(-c2cc(-c3cccc4[nH]ncc34)cn3cncc23)cn1	active: 14.1 µM
CN(C)Cc1cc(CC2(NCc3ccc(C#N)cc3)COC2)no1	inactive
Cc1cn2nc(C(=O)NCCC3=CCCCC3)cc2c(N2CCCC2)n1	inconclusive: 31.6 µM [inhibitor, full curve, poor fit]
CCc1nc2c(c(-c3ccc(O)cc3)n1)CCN(Cc1ccccc1C(F)(F)F)CC2	active: 39.8 µM
COc1ccc(CN2CCOc3nc(-c4cccc(C(F)(F)F)c4)ncc3C2=O)cc1	inconclusive: 56.2 µM [inhibitor, partial curve, poor fit]
CCN(CC)C1CCOC2(CCN(C(=O)c3sc(C)nc3C)CC2)C1 (stereo not given)	inactive
CCOC(=O)[C@H]1[C@@H](O)C(=O)N(Cc2ccccc2)C12CCN(C(=O)CC1CCCC1)CC2	inconclusive: 50.1 µM [inhibitor, partial curve, poor fit]
CCN1C(=O)C2(CCN(S(=O)(=O)c3cc(F)ccc3OC)CC2)c2ccccc21	inconclusive: 44.7 µM [inhibitor, partial curve, poor fit]
CCc1ccc(N2CC(c3noc(-c4ccccc4)n3)CC2=O)cc1 (stereo not given)	inconclusive: 44.7 µM [inhibitor, partial curve, poor fit]
CC(C)N1CC2CCC(C1)N2Cc1cccc(-c2ccsc2)c1	inconclusive: 50.1 µM [inhibitor, partial curve, poor fit]
Cc1ccc(C(=O)NC2CCN(c3ccc(F)cc3)C2=O)c(C)c1 (stereo not given)	inactive
CCOc1ccccc1NC(=O)N1c2ccccc2CC1c1noc(C(C)C)n1 (stereo not given)	inconclusive: 39.8 µM [inhibitor, partial curve]
Cc1cnc(CC2CC(=O)N(c3ccccc3)C2)nc1N(C)C (stereo not given)	inconclusive: 44.7 µM [inhibitor, partial curve, poor fit]
CCCC1=Nc2cc(C(=O)NCCc3ccc(OC)c(OC)c3)ccc2Sc2ccc(C)cc21	inconclusive: 7.94 µM [inhibitor, full curve]
COc1ccc(-c2cccc(COc3ccc4c(cnn4CC[S+](C)(=O)[O-])c3)c2)cc1	inconclusive: 89.1 µM [inhibitor, partial curve]
Cc1nn(-c2ccc(C(C)(C)C)cc2)c(C)c1[C@@H]1C=C[C@@H](NC(=O)CC2(CC(=O)O)CCCC2)C1	inconclusive: 39.8 µM [inhibitor, partial curve, poor fit]
COc1cccc(N2C(=O)NC(=NC3CCCCC3)C23CCCN(CC2CCCCC2)C3)c1 (stereo not given)	active: 28.2 µM
CCOCC(=O)N1CCC2(CC1)NCCc1c2[nH]c2ccc(OC)cc12	inactive
CCc1cc(=O)n(CC(=O)Nc2ccccc2C)c(-c2cccc(F)c2)n1	inconclusive: 56.2 µM [inhibitor, single point]
Cn1c(=O)cc(C(=O)NC2CCCc3c2[nH]c2ccc(Cl)cc32)c2ccccc21 (stereo not given)	inconclusive: 35.5 µM [inhibitor, partial curve, poor fit]

Structure (SMILES)	Potency
COc1ccc(CN2CCCn3nc(C)c(-c4ccccc4Oc4ccccc4)c32)cc1O	active: 11.2 µM
Cc1ccc(C2=NC3(CCN(C(=O)Cc4ccccc4Cl)CC3)ON2)cc1	inconclusive: 50.1 µM [inhibitor, partial curve, poor fit]
O=[S+]1([O-])NC2(CCN(CC3CCCCC3)CC2)CNc2ccccc21	inconclusive: 56.2 µM [inhibitor, partial curve, poor fit]
COc1ccccc1NC(=O)Cn1c(N2CCC(C)CC2)nc(C)cc1=O	inconclusive: 39.8 µM [inhibitor, partial curve, poor fit]
FC(F)(F)c1ccnc(N2CC[C@H](c3nnc(-c4ccncc4)o3)C2)n1	inconclusive: 28.2 µM [inhibitor, full curve]
O=c1n(CC2CC2)nc2n1CCN(Cc1ccc3[nH]ccc3c1)CC2	inconclusive: 56.2 µM [inhibitor, partial curve, poor fit]
COc1ccc(NC(=O)Nc2cccc(-c3ccc(N4CCC(C)CC4)nn3)c2)cc1OC	inconclusive: 63.1 µM [inhibitor, partial curve, poor fit]
COCC(=O)N1CCN(c2nc3ncccc3o2)CC1	inactive
CC(=O)Nc1ccc(C(=O)NC2CCN(CCn3nc4n(c3=O)CCCC4)C2)cc1 (stereo not given)	inactive
Cc1cc(CNC(=O)c2ccc(-c3ccccc3Cl)o2)n(C)n1	inconclusive: 10 µM [inhibitor, full curve, poor fit]
COCC(=O)NC1CCN(c2ccnc3ccnn23)CC1	inactive
Cn1c(CN2CCN3C(=O)NC[C@H]3C2)nc2ccccc21	inconclusive: 112 µM [inhibitor, partial curve, poor fit]
COCCN1C(=O)CCC2(CNC(=O)CCc3nc4ccccc4[nH]3)CCCC=C12 (stereo not given)	inactive
CCCN1CCN(C(=O)C2CCc3ncc(-c4ccc(F)cc4)n3C2)CC1 (stereo not given)	inconclusive: 56.2 µM [inhibitor, partial curve, poor fit]
CC(C)Cn1c(=O)c(C(=O)NCc2ccc(F)cc2)nc2cccnc21	inconclusive: 50.1 µM [inhibitor, partial curve, poor fit]
COc1ccccc1-c1ccc(C(=O)N2CCC(C(=O)NCC3CC3)CC2)cc1	inactive
O=S(=O)(NCC1Cn2cccc2CN1Cc1cccnc1)c1ccc(F)cc1 (stereo not given)	inconclusive: 70.8 µM [inhibitor, single point]
O=C1NC2(CCCN(CC3CCCCC3)C2)Oc2ccccc21 (stereo not given)	inconclusive: 50.1 µM [inhibitor, partial curve, poor fit]
Cc1cc(NC(=O)C(C)(C)Oc2nn(CCOc3ccccc3)c3ccccc23)n(C)n1	inconclusive: 44.7 µM [inhibitor, partial curve, poor fit]
COCCN1CCCCCC(O)c2cc(C(=O)N3CCN(CC(C)C)CC3)ccc21 (stereo not given)	inconclusive: 31.6 µM [inhibitor, partial curve]
